# Reference: PMC6919601, “Identification of Plasmodium dipeptidyl aminopeptidase allosteric inhibitors by high throughput screening” (PLoS ONE, 2019)
# Among all 110,000 compounds or so, about 230 (0.21%) showed an effect of 50% or more. This is one part of the list.
# Biological target: DPAP1 (Plasmodium falciparum, UniProt Q8IIJ9)
# Assay: primary screen, percent inhibition; read by cleavage of a fluorogenic dipeptide substrate; higher = more effect of the substance
# Design: species or system P. falciparum D10 trophozoite lysates; single well
# 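Further: 30 min substrate incubation versus DMSO and 10 µM JCP410 controls.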
# Chain of DPAP1 (Q8IIJ9 whole entry, looked up): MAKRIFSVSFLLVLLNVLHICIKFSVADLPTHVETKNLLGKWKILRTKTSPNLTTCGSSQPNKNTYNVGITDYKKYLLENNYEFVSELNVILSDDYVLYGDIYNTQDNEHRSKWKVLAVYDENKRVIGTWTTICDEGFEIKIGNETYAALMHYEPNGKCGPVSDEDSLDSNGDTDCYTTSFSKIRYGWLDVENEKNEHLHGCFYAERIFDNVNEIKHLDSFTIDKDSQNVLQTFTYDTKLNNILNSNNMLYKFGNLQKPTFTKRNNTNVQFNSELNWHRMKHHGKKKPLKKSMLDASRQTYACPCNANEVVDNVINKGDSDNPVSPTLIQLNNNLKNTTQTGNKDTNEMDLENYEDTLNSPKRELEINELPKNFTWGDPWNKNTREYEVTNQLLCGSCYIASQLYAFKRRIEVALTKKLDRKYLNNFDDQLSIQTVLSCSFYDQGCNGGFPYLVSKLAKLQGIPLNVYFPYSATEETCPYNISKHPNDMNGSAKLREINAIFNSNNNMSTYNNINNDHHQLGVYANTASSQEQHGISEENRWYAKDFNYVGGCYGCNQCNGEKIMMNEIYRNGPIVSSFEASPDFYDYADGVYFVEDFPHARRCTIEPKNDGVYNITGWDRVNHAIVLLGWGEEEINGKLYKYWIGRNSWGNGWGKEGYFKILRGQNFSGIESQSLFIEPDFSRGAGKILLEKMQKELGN
row,Structure (SMILES),% Inhibition @ 10 uM [%]
1,N#CC1=C(N)Oc2cc(O)ccc2C1c1cccc([N+](=O)[O-])c1 (stereo not drawn),3.32
2,O=C(Nc1ccccc1)c1cnc2ccccc2n1,-1.04
3,O=c1cc(Cl)c2cc3c4c(c2o1)CCCN4CCC3,3.15
4,CCOc1ccc(NC(=O)C(C)Sc2nc3ccccc3[nH]2)cc1 (stereo not drawn),-0.519
5,COC(=O)/C(C#N)=C/c1c(Oc2cc(C)ccc2C(C)C)nc2ccccn2c1=O,11
6,CC(=O)c1c(C)n(C2CCCCC2)c2ccc(O)cc12,-5.28
7,COc1ccc(NC(=O)c2ccccc2NC(=O)CCC(=O)O)cc1,3.04
8,Cc1sc2ncnc(SCC(=O)NCc3ccco3)c2c1C,0.222
9,O=C(c1ccc(Cl)c(Cl)c1)N1CCN(c2nc(-c3ccccc3)cs2)CC1,0.9
10,COc1ccc(/C=C2\SC(Nc3ccc(O)cc3)=NC2=O)cc1OC,-6.25
11,C=CCn1c(=N)c(C(=O)NC2CCCCC2)cc2c(=O)n3cccc(C)c3nc21,1.97
12,COC(=O)c1sc(NC(=O)C2CCC2)c(C(=O)OC)c1C,-5.81
13,C/C(=C\c1ccccc1)CN1CCCC(CO)C1 (stereo not drawn),-5.26
14,Cc1cc(-c2ccc(NC(=O)c3ccc([N+](=O)[O-])cc3)c(C)c2)ccc1NC(=O)c1ccc([N+](=O)[O-])cc1,2.54
15,Cc1ccc(NC(=O)Cn2cc(C#N)c3ccccc32)cc1,-0.968
16,COCCN1C(=O)c2ccccc2C(C(=O)NCCCN2CC(C)CC(C)C2)C1c1cccs1 (stereo not drawn),7.38
17,O=C(NCc1ccccc1)C(c1ccccc1)c1ccccc1,4.41
18,Cc1ccccc1-c1nc(CS(=O)CC(=O)NC2CCC(C)CC2)c(C)o1 (stereo not drawn),-1.05
19,Cc1ccc(Cn2ccc(NC(=O)CCC(=O)O)n2)cc1,-1.1
20,O=C(CN1CCOCC1)N1N=C(c2cccs2)CC1c1cccs1 (stereo not drawn),-6.17
21,CCOC(=O)C1=C(C)N=c2s/c(=C\c3ccc(C)cc3)c(=O)n2C1c1ccc(C)cc1 (stereo not drawn),-3.77
22,CC(=O)c1cc(-c2ccccc2)n(CC(=O)Nc2nnc(N(C)Cc3ccccc3)s2)c1C,4.83
23,CC(C)(C)c1cc(C(=O)O)nn1-c1ccccc1,3.53
24,O=C(c1cnn2c1NC(c1ccc(Br)cc1)CC2C(F)(F)F)N1CCOCC1 (stereo not drawn),0.746

row,Structure (SMILES),% Inhibition @ 10 uM [%]
1,CS(=O)(=O)N(CC(=O)Nc1ccc2ccccc2c1)c1cccc2ccccc12,-5
2,CC(C)CNc1nc(Oc2ccc(OC(C)C)nn2)nc(N2CCOCC2)n1,0.401
3,O=c1c2cccnc2n(Cc2cccc(C(F)(F)F)c2)c(=O)n1Cc1ccc(F)cc1,-1.66
4,Cc1noc(/C=C/N(C)C)c1S(=O)(=O)N1CCC(C(=O)NC(C)(C)C)CC1,-8.42
5,Cc1cc(Br)cc2c1N(C)C(=O)C2=O,-6.46
6,O=C1NC(=O)N(CCc2ccc(F)cc2)C(=O)/C1=C/c1c[nH]c2ccccc12,2.09
7,COc1ccc(C2C3=C(O)CCCC3=Nc3ncnn32)c(OC)c1 (stereo not drawn),-1.62
8,CSc1ccc(/C=C/C2=CC(C)(C)NC(S)=N2)cc1,-3.39
9,CC1=C(C(=O)N(C)C)C(c2ccccc2F)n2c(nc3ccccc32)N1 (stereo not drawn),1.73
10,Cc1oc(-c2ccc(Cl)cc2)nc1CN1CCC(C(=O)NCCCN(C)Cc2ccccc2)CC1,3.93
11,CCC(=O)N1N=C2C3CCN(CC3)C2C1c1cc(C)cc(C)c1 (stereo not drawn),1.64
12,Cc1ccc(S(=O)(=O)N2CCC[C@H]2C(O)(c2ccccc2)c2ccccc2)cc1,2.02
13,Cc1ccccc1N1CCN(c2ccc(NC(=O)C3CC=CCC3C(=O)O)cc2)CC1 (stereo not drawn),-1.61
14,CNS(=O)(=O)c1cn(CC(=O)Nc2ncccc2C)cc1S(=O)(=O)NC,-0.696
15,CC1(C)CC(=O)C2=C(C1)N(c1ccc(Cl)cc1)C(N)=C(C#N)C21C(=O)Nc2ccccc21 (stereo not drawn),0.687
16,COc1ccc(C(=O)Nc2cccc(Cl)c2)c(OC)c1,2.43
17,COc1cc(NC(=O)c2cc3nc(-c4ccco4)cc(C(F)(F)Cl)n3n2)cc(OC)c1OC,-7.63
18,Nc1ccc(S(=O)(=O)Nc2nc3ccccc3nc2Nc2ccc3ccccc3c2)cc1,-0.0372
19,CN(CCCNC(=O)Cn1ncc2c3ccccc3n(Cc3ccccc3)c2c1=O)C1CCCCC1,-1.58
20,COc1ccc(OC)c(NC(=O)c2ccc(Cl)c(Cl)c2)c1,-2.65
21,Cc1ccc(C(=O)NCC(=O)NCC(=O)O)cc1,-1.1
22,O=C(Nc1ccccc1)NC1CCCCC1,2.01
23,Cc1ccc(CN(Cc2ccccc2)C(=S)NCC(=O)NC2CCCCC2)o1,-0.406
24,CCOc1ccc(/C=C2\SC(Nc3ccc(F)cc3)=NC2=O)cc1OC,-2.86

row,Structure (SMILES),% Inhibition @ 10 uM [%]
1,N#CC1(NC(=O)[C@H](Cc2c(F)cccc2F)NC(=O)c2ccc(-c3ccccc3Cl)[n+]([O-])c2)CCS(=O)(=O)CC1,-5.2
2,CC1(C)COC2(NC1=O)c1ccccc1-c1ccccc12,6.68
3,COc1ccc(Cl)cc1NC(=O)CN(Cc1ccccc1)S(C)(=O)=O,9.41
4,O=C(Nc1cccc([N+](=O)[O-])c1)c1cccc(S(=O)(=O)NCc2ccccc2)c1,-1.74
5,CN(C)CCN(C(=O)Cc1ccccc1)c1nc2cc3c(cc2s1)OCCO3,-1.41
6,C=CCNc1nc(-c2ccc(C)cc2C)cs1,-6.83
7,O=C(CCCc1nnc2n3nc(-c4ccccc4)nc3c3ccccc3n12)NCCCN1CCCC1=O,0.44
8,CC(C)C1C(C#N)=C(N)Oc2c1c(=O)oc1ccccc21 (stereo not drawn),-4.03
9,Cc1nn(C(C)C(=O)NCc2ccccn2)c(=O)c2nn(-c3ccccc3)c(C)c12 (stereo not drawn),-6.93
10,COCCCNC(=O)c1sc2nc3n(c(=O)c2c1C)CCCCC3,-2.88
11,CCOc1ccccc1NC(=O)C1=C(C)NC(=O)NC1c1ccc(N(C)C)cc1 (stereo not drawn),0.812
12,Cc1ccc(-c2cc(C(F)(F)F)n3ncc(C(=O)NCc4c(C)nn(C)c4C)c3n2)cc1,2.32
13,Clc1ccc(OCc2ccccc2)c(CNCC2CCCO2)c1 (stereo not drawn),-1.61
14,CN(Cc1ccco1)S(=O)(=O)c1nnc(NC(=O)c2ccc(F)cc2)s1,1.68
15,O=C(COc1ccc2ccccc2c1Br)NCC1CCCO1 (stereo not drawn),2.32
16,COc1ccc(-c2cc(C(F)(F)F)n3nc(C(=O)NCc4c(C)nn(C)c4C)c(Cl)c3n2)cc1,0.64
17,COc1ccc(Nc2nc(C)cc(O)n2)cc1,0.215
18,COc1cc(CN2CCN(c3cccc(C(F)(F)F)c3)CC2)cc(OC)c1O,-3.71
19,Cc1nc(SCc2cc(=O)n3nc(C(C)C)sc3n2)n[nH]1,3.29
20,CC1Oc2ccc(C(=O)CCC(=O)O)cc2NC1=O (stereo not drawn),-1.29
21,CCOc1ccc(NS(=O)(=O)c2ccc(NC(=O)c3ccccc3Cl)cc2)cc1,-2.83
22,CC1(C)CC2=Nc3ncnn3C(c3ccccc3)C2=C(O)C1 (stereo not drawn),-3.63
23,CCCN(CCO)Cc1cccc(Cl)c1Cl,-8.55
24,OC1(C(O)(c2ccccc2)c2ccccn2)CCCCC1 (stereo not drawn),0.177

row,Structure (SMILES),% Inhibition @ 10 uM [%]
1,CCCn1c(=O)c2sccc2n2c(CCCC(=O)N[C@@H](C)CC)nnc12,0.868
2,Cn1c(=O)c2sccc2n2c(CCCC(=O)NCCN(Cc3ccco3)C3CCCC3)nnc12,-1.59
3,O=C(c1cccc2ccccc12)N1CCN(Cc2c[nH]c3ccccc23)CC1,0.147
4,N=C(NOC(=O)Cc1ccccc1)c1ccccn1,-1.25
5,O=C(O)c1[nH]c2ccccc2c1CNCc1ccccc1,-5.05
6,COc1ccc(CN2C(=O)c3cccnc3C2=O)cc1S(=O)(=O)N1CCC(c2ccccc2)C1 (stereo not drawn),-8.24
7,CC1CCC2=NN(C(=O)c3cccnc3)C(O)(C(F)(F)F)C2C1 (stereo not drawn),-2.22
8,CC(C)CN(CCNCc1c(C(=O)O)n(Cc2ccccc2)c2ccccc12)CC(C)C,3.54
9,Cc1ccc(-n2nc3c(=O)n(CCCC(=O)NCC4CCCO4)nc(C)c3c2C)cc1 (stereo not drawn),-1.57
10,CSCCC(C(=O)Nc1ccc(C)cc1C)N1C(=O)c2ccccc2C1=O (stereo not drawn),-0.0947
11,Cn1nc(N)c2c(-c3ccccc3)c(C#N)c(N)nc21,0.795
12,O=C(NCc1ccccc1)C1CCCN(C(=O)c2ccc(-n3ccc4ccccc43)s2)C1 (stereo not drawn),-0.127
13,CC(=O)c1ccc(N2CCN(Cc3cccc(Cl)c3)CC2)cc1,-3.04
14,Cn1c2ccc(Br)cc2c2nnc(SCC(=O)NC3=NC(=O)CS3)nc21,-2.87
15,Cc1ccc(C)c(-c2csc(Nc3ccccc3)n2)c1,5.32
16,Cn1c(=O)n2ncnc2c2c3c(sc21)CCCC3,0.0539
17,COC(=O)C12CC3CC(CC(N)(C3)C1)C2,-5.48
18,COc1ccc(-c2oc(=O)n(CCc3ccccc3)c2-c2ccc(OC)cc2)cc1,-2.63
19,CC(C)c1cc(C(C)C)c(S(=O)(=O)Nc2cccc3cccnc23)c(C(C)C)c1,-6.29
20,CCOc1cc(C2c3c(oc4ccccc4c3=O)C(=O)N2c2nc(C)c(C(=O)OC)s2)ccc1O (stereo not drawn),69.6
21,CCCCCN1C(C(=O)c2ccccc2)=C(NC(=O)Cc2ccccc2)c2ccccc2S1(=O)=O,3.63
22,O=C(Nc1nccs1)C1CC(=O)N(c2ccc(Cl)cc2)C1 (stereo not drawn),4.3
23,Cc1ccc(C2C(C#N)=C(N)Oc3c2c(C)nn3-c2cccnc2)cc1 (stereo not drawn),-0.988
24,COc1ccccc1CC(=N)NOC(=O)c1ccccc1OC,5.37
